In PubChem BioAssay (NCATS):
Inconclusive means that the source gave no clear call. Such entries were picked first, then a sample of the others. No potency is given beside an inconclusive call; the fits are too rough. Active and inactive are the calls of the source. Calls come from the whole dose curve; as a rule, active = well fitted curve in the direction sought with a large enough effect; inconclusive = small, poorly fitted or top-dose-only effect, or another doubt; inactive = no such curve, though single readings can be large; an effect the other way counts as inactive or inconclusive.

Target: Fructose-bisphosphate aldolase A (Oryctolagus cuniculus) (UniProt P00883)
Chain of UniProt P00883 (P00883 whole entry, looked up): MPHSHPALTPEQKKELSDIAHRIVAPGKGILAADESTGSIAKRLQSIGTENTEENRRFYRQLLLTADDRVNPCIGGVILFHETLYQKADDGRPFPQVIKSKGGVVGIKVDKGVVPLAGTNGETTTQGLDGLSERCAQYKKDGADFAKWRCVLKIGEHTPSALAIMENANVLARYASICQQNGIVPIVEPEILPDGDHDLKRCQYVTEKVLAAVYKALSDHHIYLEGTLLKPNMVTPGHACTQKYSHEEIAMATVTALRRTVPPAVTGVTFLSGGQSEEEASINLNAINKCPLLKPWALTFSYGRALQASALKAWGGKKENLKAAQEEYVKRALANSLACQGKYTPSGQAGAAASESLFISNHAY
Test: qHTS Assay for Inhibitors of Fructose-1,6-bisphosphate Aldolase from Giardia Lamblia: Rabbit FBPA Selectivity (AID 2794); note: nearly all actives have a fitted effect of over 60% in size
Conditions: Rabbit muscle FBPA enzyme inhibition, selectivity counter-screen; series mostly up to 57.5 µM
Method in brief: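 Titrations up to 57.5 uM (final) were pin-transferred onto the coupling enzyme mix and held 10 min at room temperature. Substrate with the coupled detection system and AmpLite Red followed, and after 20 min fluorescence was measured.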
Potency is the fitted concentration of half-maximal effect; tags give direction and shape of the fitted curve.

Structure (SMILES) | Potency
O=C(NN1C(=O)/C(=C/C=C/c2ccco2)SC1=S)c1ccncc1 | inconclusive [inhibitor, partial curve]
N#C/C(=C(/O)CCl)c1nc2c(s1)CCc1ccccc1-2 | inconclusive [inhibitor, partial curve]
O=C1NC(=O)/C(=C/c2ccc(-c3cc(C(=O)O)ccc3Cl)o2)S1 | inactive
Cc1ccc(C(=O)c2no[n+]([O-])c2C(=O)c2ccc(C)cc2)cc1 | inconclusive [inhibitor, partial curve]

Target: Ubiquitin carboxyl-terminal hydrolase 1 (Homo sapiens) (UniProt O94782)
Chain of UniProt O94782 (O94782 whole entry, looked up): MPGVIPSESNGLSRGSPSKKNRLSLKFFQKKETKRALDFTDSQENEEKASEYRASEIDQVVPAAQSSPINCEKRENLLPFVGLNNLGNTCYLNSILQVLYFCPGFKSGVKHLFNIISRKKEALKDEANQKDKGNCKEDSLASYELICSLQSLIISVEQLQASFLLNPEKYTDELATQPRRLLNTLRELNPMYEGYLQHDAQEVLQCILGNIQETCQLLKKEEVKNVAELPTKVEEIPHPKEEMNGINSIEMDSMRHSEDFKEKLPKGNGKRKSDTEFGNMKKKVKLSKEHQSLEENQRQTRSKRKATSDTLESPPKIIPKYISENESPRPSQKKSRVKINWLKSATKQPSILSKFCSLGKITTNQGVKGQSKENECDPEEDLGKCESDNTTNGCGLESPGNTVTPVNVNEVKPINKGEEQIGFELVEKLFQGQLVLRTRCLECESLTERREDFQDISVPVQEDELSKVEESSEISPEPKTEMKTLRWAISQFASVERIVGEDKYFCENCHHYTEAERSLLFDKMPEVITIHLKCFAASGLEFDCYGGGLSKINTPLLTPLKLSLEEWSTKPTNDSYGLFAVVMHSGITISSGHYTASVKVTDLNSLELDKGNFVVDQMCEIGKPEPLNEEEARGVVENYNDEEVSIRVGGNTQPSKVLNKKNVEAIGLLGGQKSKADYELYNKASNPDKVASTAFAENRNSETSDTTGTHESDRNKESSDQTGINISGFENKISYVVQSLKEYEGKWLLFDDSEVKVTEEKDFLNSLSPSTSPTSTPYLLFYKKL
Test: Inhibitors of USP1/UAF1: Pilot qHTS (AID 504865);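 note: rhodamine fluorescence freed from ubiquitin-rhodamine substrate followed over time; nearly all actives have a fitted effect of over 35% in size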
Conditions: purified USP1/UAF1, Ub-rhodamine cleavage fluorescence; series mostly up to 54.9 µM
Method in brief: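 Kinetic fluorescence assay: 1nM USP1/UAF1, 15 min compound preincubation, then 150nM Ub-Rho; 480/540 nm.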

Structure (SMILES) | Potency
CC(Cc1ccc(O)c(O)c1)C(C)Cc1ccc(O)c(O)c1 (centres undefined) | inconclusive [inhibitor, full curve, poor fit]
O=C(O)c1cc(O)c2c(c1)C(=O)c1cc(O)cc(O)c1C2=O | active: 56.2 µM
COc1ccc(CNc2cc(-c3ccccc3C)ncn2)c(OC)c1 | inconclusive [inhibitor, single point]

Test system: not listed separately
Test: qHTS for Inhibitors of the vitamin D receptor (VDR): Hit Validation using a Texas Red Assay (AID 602201)
Conditions: VDR coregulator binding, Texas Red fluorescence polarization, agonist-bound VDR ligand-binding domain; series mostly up to 57.1 µM
Method in brief: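 Fluorescence polarization (Ex 595/Em 615 nm) of Texas Red (7 nM) with 1.5 uM VDR-LBD and LG19078 (final concentrations). Compounds were incubated for 2 hours at room temperature.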

Structure (SMILES) | Potency
O=C(O)c1ccc2c(c1)C(=O)N(c1ccc(/C=C/C(=O)c3ccccc3)cc1)C2=O | inactive
O=C(O)c1cc(Nc2cc(Cl)c3nonc3c2[N+](=O)[O-])ccc1O | inactive
Cc1ccc(C(=O)c2no[n+]([O-])c2C(=O)c2ccc(C)cc2)cc1 | inconclusive [inhibitor, partial curve, poor fit]

Target: DNA polymerase eta (Homo sapiens) (UniProt Q9Y253)
Chain of UniProt Q9Y253 (Q9Y253 whole entry, looked up): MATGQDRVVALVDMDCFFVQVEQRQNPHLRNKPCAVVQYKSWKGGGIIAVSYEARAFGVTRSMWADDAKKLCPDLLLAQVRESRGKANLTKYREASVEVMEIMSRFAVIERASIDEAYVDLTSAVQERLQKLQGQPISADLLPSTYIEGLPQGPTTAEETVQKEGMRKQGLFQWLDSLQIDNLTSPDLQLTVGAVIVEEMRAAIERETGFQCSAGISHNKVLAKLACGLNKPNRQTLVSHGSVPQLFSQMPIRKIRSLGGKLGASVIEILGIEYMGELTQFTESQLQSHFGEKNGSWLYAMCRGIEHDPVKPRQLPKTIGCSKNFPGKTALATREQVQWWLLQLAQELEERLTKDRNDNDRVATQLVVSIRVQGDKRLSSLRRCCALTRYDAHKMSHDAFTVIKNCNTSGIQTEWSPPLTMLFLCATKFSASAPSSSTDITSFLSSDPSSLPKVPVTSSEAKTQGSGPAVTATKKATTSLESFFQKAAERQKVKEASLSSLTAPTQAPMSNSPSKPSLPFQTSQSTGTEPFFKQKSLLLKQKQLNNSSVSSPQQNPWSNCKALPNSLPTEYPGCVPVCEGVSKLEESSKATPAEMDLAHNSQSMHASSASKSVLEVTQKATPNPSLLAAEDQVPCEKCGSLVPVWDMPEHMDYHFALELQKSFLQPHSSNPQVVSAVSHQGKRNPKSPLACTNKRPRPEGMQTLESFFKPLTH
Test: qHTS for Inhibitors of Polymerase Eta: Confirmatory Assay for Cherry-picked Compounds (AID 720502)
Conditions: Pol eta primer extension, TAMRA/BHQ fluorescence, 10 min
Method in brief: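 10 nM Pol eta + cpd, 15 min RT; start w/ 50 nM final primer/TAMRA-reporter/BHQ-2-template substrate; kinetic read 0 and 10 min, ex 525/em 598 nm. Buffer-only wells = negative control.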

Structure (SMILES) | Potency
Cc1ccc(S(=O)(=O)N2[C@@H](c3ccc(C(C)(C)C)cc3)C(C(=O)O)=CC[C@H]2c2ccc(Cl)cc2)cc1 | inconclusive [inhibitor, single point]
O=C(NN1C(=O)/C(=C/C=C/c2ccco2)SC1=S)c1ccncc1 | active: 3.38 µM
NS(=O)(=O)c1ccc(N=Nc2ccc(=O)[nH]c2O)cc1 | inconclusive [inhibitor, full curve, poor fit]
Cc1ccc(Cl)c2c1N[C@@H](c1ccc(C(=O)O)cc1)[C@H]1CC=C[C@@H]21 | inconclusive [inhibitor, single point]
CN(Cc1ccco1)c1ncnc2ccc(-c3ccoc3)cc12 | active: 37.9 µM
O=C(O)c1cc(Nc2cc(Cl)c3nonc3c2[N+](=O)[O-])ccc1O | active: 47.8 µM
Cc1ccc(NC(=O)c2c(NC(=O)C(F)(F)F)sc3c2CCCCC3)cc1 | inconclusive [inhibitor, single point]
O=c1cc(O)c2sc3nc(-c4cccnc4)cc(C(F)(F)F)c3c2[nH]1 | inconclusive [inhibitor, single point]
O=C1NC(=O)/C(=C/c2ccc(-c3cc(C(=O)O)ccc3Cl)o2)S1 | inconclusive [inhibitor, single point]
Cc1ccc(S(=O)(=O)N2[C@@H](c3ccc(C(C)(C)C)cc3)C(C(=O)O)=CC[C@H]2c2cccc(Cl)c2)cc1 | inconclusive [inhibitor, single point]

Target: RecQ-like DNA helicase BLM (Homo sapiens) (UniProt P54132)
Chain of UniProt P54132 (P54132 whole entry, looked up): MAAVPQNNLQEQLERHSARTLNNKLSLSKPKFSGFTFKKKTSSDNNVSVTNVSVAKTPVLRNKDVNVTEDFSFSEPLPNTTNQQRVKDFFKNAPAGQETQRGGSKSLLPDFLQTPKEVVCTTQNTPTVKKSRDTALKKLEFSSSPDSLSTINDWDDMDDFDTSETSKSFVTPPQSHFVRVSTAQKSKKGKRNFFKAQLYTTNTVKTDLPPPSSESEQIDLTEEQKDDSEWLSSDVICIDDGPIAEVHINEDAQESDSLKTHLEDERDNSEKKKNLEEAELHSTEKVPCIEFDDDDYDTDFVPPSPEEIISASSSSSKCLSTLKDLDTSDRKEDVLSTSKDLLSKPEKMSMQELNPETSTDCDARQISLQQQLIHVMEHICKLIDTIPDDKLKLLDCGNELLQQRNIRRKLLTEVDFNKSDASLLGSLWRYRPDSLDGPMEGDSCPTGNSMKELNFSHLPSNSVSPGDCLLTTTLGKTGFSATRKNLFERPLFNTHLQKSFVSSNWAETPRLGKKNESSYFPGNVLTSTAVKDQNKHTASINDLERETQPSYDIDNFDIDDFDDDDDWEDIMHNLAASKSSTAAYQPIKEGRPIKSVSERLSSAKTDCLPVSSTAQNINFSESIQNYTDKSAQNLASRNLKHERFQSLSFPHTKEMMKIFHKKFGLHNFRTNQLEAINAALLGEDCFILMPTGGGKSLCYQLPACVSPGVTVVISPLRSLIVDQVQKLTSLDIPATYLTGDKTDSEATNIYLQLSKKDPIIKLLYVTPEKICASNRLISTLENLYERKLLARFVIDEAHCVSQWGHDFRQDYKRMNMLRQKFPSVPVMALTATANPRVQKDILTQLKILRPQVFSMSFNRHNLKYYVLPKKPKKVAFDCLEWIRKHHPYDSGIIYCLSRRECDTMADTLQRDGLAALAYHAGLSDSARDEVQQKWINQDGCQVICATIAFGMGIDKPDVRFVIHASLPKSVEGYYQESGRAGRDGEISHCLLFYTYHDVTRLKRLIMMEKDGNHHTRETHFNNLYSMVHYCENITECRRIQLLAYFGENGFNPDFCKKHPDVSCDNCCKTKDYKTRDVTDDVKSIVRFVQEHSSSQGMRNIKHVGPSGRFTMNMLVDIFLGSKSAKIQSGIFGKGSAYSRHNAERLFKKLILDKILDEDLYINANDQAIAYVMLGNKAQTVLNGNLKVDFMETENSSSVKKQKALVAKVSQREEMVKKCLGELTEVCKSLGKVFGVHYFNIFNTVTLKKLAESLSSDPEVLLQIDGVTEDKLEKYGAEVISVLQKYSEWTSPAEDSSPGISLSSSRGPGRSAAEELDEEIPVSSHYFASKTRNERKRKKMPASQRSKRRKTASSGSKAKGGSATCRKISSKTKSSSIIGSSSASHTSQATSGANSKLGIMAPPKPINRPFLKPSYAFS
Test: qHTS for Inhibitors of WRN Helicase: BLM Helicase Counterscreen for WRN Inhibitors (AID 720503); note: nearly all actives have a fitted effect of over 60% in size
Conditions: Recombinant BLM helicase DNA unwinding, red fluorescence; series mostly up to 57.1 µM
Method in brief: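 Steps: compounds added to 1 nM BLM in pH 8.0 Tris buffer with 2 mM MgCl2; 15 min room-temperature incubation; substrates added (100 nM DNA, 2 mM ATP final); discontinuous kinetic fluorescence measurement, reads spaced 15 min.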

Structure (SMILES) | Potency
O=C1c2cc(O)c(O)cc2OC(c2ccc(O)c(O)c2)C1O (centres undefined) | inconclusive [inhibitor, partial curve]
CCOc1cccc(CNc2ccc(O)cc2)c1OCc1ccc(Cl)cc1Cl | inconclusive [inhibitor, partial curve]
O=C(CSc1nnc(-c2cnccn2)n1Cc1ccco1)c1ccc(Cl)cc1 | inactive
CCN(CC)c1ccc(/C=C2/C(=O)c3ccc(C(=O)O)cc3C2=O)cc1 | inconclusive [inhibitor, partial curve, poor fit]
O=C(O)c1[nH]c2ccccc2c1C(c1cc(Cl)cc([N+](=O)[O-])c1O)c1c(C(=O)O)[nH]c2ccccc12 | inconclusive [inhibitor, single point]

Target: Rap guanine nucleotide exchange factor 3 (Homo sapiens) (UniProt O95398)
Chain of UniProt O95398 (O95398 whole entry, looked up): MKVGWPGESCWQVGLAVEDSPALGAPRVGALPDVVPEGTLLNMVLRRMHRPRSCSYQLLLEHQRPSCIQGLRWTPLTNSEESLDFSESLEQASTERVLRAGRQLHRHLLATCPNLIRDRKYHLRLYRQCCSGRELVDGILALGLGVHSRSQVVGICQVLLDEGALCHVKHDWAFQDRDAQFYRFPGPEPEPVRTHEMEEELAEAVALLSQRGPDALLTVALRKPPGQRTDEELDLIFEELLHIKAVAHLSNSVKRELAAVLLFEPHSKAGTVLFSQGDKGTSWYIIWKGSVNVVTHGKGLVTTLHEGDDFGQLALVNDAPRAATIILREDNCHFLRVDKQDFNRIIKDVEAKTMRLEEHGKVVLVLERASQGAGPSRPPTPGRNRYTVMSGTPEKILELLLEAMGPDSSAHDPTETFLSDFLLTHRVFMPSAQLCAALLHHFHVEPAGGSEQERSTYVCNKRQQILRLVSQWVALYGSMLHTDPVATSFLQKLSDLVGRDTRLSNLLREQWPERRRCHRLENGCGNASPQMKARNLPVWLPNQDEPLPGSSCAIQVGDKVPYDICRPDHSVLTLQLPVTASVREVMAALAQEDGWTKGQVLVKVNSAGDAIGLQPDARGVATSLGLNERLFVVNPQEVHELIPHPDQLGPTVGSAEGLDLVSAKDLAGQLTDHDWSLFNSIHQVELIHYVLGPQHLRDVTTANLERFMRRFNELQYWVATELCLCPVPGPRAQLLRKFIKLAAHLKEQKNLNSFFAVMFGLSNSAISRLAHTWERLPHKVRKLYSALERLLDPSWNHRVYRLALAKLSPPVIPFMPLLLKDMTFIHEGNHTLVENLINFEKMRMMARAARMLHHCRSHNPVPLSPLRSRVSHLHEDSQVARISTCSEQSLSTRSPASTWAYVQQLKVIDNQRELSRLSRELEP
Test: Confirmatory qHTS for antagonist of cAMP-regulated guanine nucleotide exchange factor 3 (EPAC1) (AID 1645880); note: nearly all actives have a fitted effect of over 55% in size
Conditions: EPAC1 Rap1B-BODIPY-GDP exchange, fluorescence; series mostly up to 115 µM
Method in brief: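 Nucleotide exchange uses 100 nM EPAC1, 250 nM RAP1B-BODIPY-GDP and 50 uM GDP, with compounds in a concentration-titration series. After 5 min at room temperature, fluorescence (480 nm ex/540 nm em) is read every 5 min for 30 min. Data are normalized to control ATA and DMSO.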

Structure (SMILES) | Potency
COc1ccc(-n2c(=O)c(-c3cc(F)cc(F)c3)nc3cnc(N(C)C)nc32)cc1 | inactive
O=C1c2cc(O)c(O)cc2OC(c2ccc(O)c(O)c2)C1O (centres undefined) | active: 42.6 µM
CN(C)c1ncnc2ccc(-c3ccccc3C(F)(F)F)cc12 | inconclusive [inhibitor, partial curve, poor fit]
CCOc1cccc(CNc2ccc(O)cc2)c1OCc1ccc(Cl)cc1Cl | inconclusive [inhibitor, partial curve]
Cc1ccc(S(=O)(=O)N2[C@@H](c3ccc(C(C)(C)C)cc3)C(C(=O)O)=CC[C@H]2c2ccc(Cl)cc2)cc1 | active: 33.8 µM
CC(Cc1ccc(O)c(O)c1)C(C)Cc1ccc(O)c(O)c1 (centres undefined) | active: 31.4 µM
O=C(CSc1nnc(-c2cnccn2)n1Cc1ccco1)c1ccc(Cl)cc1 | inconclusive [inhibitor, partial curve]
CCN(CC)c1ccc(/C=C2/C(=O)c3ccc(C(=O)O)cc3C2=O)cc1 | inconclusive [inhibitor, partial curve, poor fit]
COc1c(O)cc2oc(-c3ccc(O)c(O)c3)cc(=O)c2c1O | active: 10.7 µM
O=C(NN1C(=O)/C(=C/C=C/c2ccco2)SC1=S)c1ccncc1 | inconclusive [inhibitor, full curve]
COCC(=O)N1CCC2(CC1)CCN(C(=O)Nc1cccc(C#N)c1)CC2 | inactive
CC1(C)Cc2c(C#N)c(N3CCN(C(=O)c4ccco4)CC3)nc(-c3ccco3)c2CS1 | inconclusive [inhibitor, partial curve]
NS(=O)(=O)c1ccc(N=Nc2ccc(=O)[nH]c2O)cc1 | inconclusive [inhibitor, partial curve]
O=C(O)c1[nH]c2ccccc2c1C(c1cc(Cl)cc([N+](=O)[O-])c1O)c1c(C(=O)O)[nH]c2ccccc12 | active: 37.9 µM
Cc1ccc(Cl)c2c1N[C@@H](c1ccc(C(=O)O)cc1)[C@H]1CC=C[C@@H]21 | active: 84.9 µM
CN(Cc1ccco1)c1ncnc2ccc(-c3ccoc3)cc12 | inactive
COc1ccc(CNc2nc(-c3ccc4c(c3)OCO4)nc3ccccc23)c(OC)c1 | inconclusive [inhibitor, partial curve]

Structure (SMILES) | Potency
COC(=O)C1=C(C)NC(C)=C([N+](=O)[O-])[C@H]1c1ccccc1C(F)(F)F | inconclusive [inhibitor, partial curve]
Cc1noc(C)c1C(=O)N1CCC2(CCN(Cc3ccc(C#N)cc3)CC2)CC1 | inactive
O=C(O)c1ccc2c(c1)C(=O)N(c1ccc(/C=C/C(=O)c3ccccc3)cc1)C2=O | active: 39.8 µM
N#C/C(=C(/O)CCl)c1nc2c(s1)CCc1ccccc1-2 | active: 6.75 µM
COc1ccc(C(=O)N2CCC3(CC2)CN(c2cccc(-c4ccccc4)c2)C3)cc1 | inactive
O=C(O)c1cc(O)c2c(c1)C(=O)c1cc(O)cc(O)c1C2=O | inconclusive [inhibitor, partial curve]
O=C(O)c1cc(Nc2cc(Cl)c3nonc3c2[N+](=O)[O-])ccc1O | active: 9.53 µM
O=C(c1cccc(F)c1)N1CCC2(CCN(Cc3cc(C(F)(F)F)cc(C(F)(F)F)c3)CC2)CC1 | inconclusive [inhibitor, partial curve, poor fit]
Cc1ccc(NC(=O)c2c(NC(=O)C(F)(F)F)sc3c2CCCCC3)cc1 | active: 84.9 µM
O=c1cc(O)c2sc3nc(-c4cccnc4)cc(C(F)(F)F)c3c2[nH]1 | inactive
O=C1NC(=O)/C(=C/c2ccc(-c3cc(C(=O)O)ccc3Cl)o2)S1 | inconclusive [inhibitor, full curve, poor fit]
Cc1ccc(S(=O)(=O)N2[C@@H](c3ccc(C(C)(C)C)cc3)C(C(=O)O)=CC[C@H]2c2cccc(Cl)c2)cc1 | active: 47.8 µM
COc1ccc(CNc2cc(-c3ccccc3C)ncn2)c(OC)c1 | inactive
Cc1ccc(C(=O)c2no[n+]([O-])c2C(=O)c2ccc(C)cc2)cc1 | inconclusive [inhibitor, partial curve]
c1ccc(NN(Cc2cnccn2)c2ccccc2)cc1 | inactive
Nc1ccc(N2CCCCC2)c2nonc12 | inconclusive [inhibitor, full curve]
O=C(c1cccc(F)c1)N1CCC2(CC1)CN(c1cccc(-c3ccccc3)c1)C2 | inactive
